These are yes or no findings as the source states them, for the method shown. For some of these results: Binding seen in cells or lysates may run through a third protein. Some binding calls cover weakened binding; strength is not graded here. Where a sequence is shown, tags or fusion partners need not be part of it.
T1: LexA BD-Pxa2_CT (S. cerevisiae) (UniProt P34230)
T1 sequence: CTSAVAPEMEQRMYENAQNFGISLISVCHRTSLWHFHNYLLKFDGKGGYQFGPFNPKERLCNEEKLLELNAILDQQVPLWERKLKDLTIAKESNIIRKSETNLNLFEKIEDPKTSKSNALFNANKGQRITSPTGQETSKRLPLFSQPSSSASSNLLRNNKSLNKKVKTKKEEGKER

T2: Pxa2_NBD-CT1+2-His (S. cerevisiae) (UniProt P34230)
T2 sequence: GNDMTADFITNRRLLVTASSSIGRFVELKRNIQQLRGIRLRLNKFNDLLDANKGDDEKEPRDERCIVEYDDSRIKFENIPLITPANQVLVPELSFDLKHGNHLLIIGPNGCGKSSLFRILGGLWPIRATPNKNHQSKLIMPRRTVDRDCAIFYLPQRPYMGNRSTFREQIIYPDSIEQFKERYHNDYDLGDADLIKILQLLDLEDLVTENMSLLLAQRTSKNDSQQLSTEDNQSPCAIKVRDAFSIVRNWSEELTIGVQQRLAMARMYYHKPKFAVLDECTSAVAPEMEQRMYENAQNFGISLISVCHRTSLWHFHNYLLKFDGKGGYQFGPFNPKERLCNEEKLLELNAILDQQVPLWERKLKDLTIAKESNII

T3: Pxa2_NBD-CT-His6 (S. cerevisiae) (UniProt P34230)
T3 sequence: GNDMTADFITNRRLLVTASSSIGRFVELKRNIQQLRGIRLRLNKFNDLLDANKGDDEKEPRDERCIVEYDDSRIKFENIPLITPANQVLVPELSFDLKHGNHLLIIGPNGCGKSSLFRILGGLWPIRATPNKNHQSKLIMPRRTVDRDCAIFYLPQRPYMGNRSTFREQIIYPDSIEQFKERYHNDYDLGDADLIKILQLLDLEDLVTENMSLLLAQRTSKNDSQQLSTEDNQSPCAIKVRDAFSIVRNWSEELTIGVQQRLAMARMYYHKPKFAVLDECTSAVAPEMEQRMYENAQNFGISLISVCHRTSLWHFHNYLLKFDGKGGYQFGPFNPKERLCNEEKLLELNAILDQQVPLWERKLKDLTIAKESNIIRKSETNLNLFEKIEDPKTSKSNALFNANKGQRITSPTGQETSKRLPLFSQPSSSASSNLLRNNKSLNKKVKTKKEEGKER

T4: LexA BD-Pxa2_NBD-CT (S. cerevisiae) (UniProt P34230)
T4 sequence: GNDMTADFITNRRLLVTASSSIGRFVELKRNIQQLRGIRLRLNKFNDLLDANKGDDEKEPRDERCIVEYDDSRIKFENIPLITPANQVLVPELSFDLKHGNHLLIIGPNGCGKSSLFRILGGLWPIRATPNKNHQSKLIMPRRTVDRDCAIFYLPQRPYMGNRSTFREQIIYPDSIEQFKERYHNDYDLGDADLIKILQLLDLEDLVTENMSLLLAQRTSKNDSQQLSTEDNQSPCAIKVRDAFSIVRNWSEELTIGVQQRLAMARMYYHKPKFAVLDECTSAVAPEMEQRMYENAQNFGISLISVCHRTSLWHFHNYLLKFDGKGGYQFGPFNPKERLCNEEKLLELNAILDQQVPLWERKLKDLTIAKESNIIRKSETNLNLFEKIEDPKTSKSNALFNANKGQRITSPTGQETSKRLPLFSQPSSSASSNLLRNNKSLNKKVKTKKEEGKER

T5: LexA BD-Pxa2_NBD (S. cerevisiae) (UniProt P34230)
T5 sequence: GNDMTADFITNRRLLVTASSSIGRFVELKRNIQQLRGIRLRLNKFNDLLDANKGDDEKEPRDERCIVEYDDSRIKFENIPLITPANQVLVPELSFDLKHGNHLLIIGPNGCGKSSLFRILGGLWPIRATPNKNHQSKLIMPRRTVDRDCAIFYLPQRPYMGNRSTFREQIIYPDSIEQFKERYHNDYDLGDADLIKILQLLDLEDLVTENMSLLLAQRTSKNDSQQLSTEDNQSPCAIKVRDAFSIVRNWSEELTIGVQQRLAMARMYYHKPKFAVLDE

T6: LexA BD-Pxa2_NBD-CT1 (S. cerevisiae) (UniProt P34230)
T6 sequence: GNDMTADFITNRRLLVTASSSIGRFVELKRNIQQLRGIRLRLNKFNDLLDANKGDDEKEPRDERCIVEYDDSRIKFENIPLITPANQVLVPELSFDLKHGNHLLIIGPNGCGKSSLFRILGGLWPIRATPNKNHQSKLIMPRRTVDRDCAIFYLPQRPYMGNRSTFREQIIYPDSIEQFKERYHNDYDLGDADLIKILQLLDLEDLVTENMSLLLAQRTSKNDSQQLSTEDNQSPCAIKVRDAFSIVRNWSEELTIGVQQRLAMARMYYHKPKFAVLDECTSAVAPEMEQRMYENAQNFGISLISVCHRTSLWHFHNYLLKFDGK

T7: LexA BD-Pxa2_NBD-CT1+2 (S. cerevisiae) (UniProt P34230)
T7 sequence: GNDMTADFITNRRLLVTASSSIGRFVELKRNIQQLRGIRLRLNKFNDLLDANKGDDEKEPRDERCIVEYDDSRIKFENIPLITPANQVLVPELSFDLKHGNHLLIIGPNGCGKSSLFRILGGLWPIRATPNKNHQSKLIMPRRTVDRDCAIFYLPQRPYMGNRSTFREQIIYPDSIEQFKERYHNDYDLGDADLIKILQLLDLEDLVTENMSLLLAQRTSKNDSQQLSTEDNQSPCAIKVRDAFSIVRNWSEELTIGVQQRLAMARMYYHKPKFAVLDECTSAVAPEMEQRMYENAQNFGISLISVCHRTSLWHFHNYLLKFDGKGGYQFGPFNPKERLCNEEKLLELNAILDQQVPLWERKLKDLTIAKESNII


Assays:
[1] = target: T1, LexA BD-Pxa2_CT (S. cerevisiae); test: two-hybrid; EGY48 (pSH18-34) reporter strain, Pxa2 fragment fused to LexA BD (pEG202) and partner fused to Gal4 AD (pACT2); beta-galactosidase on an X-gal plate, 16 h at 30°C, blue indicates interaction
[2] = target: T2, Pxa2_NBD-CT1+2-His (S. cerevisiae); test: pull-down; His6-tagged Pxa2 fragments co-expressed with Pxa1_NBD-HA in yeast BJ2168; total extracts over Ni-NTA column at 4°C, 10 mM Tris pH 7.6, 150 mM NaCl, wash 25 mM imidazole, elution 250 mM imidazole; Western blot, E2 fraction normalised to total
[3] = target: T3, Pxa2_NBD-CT-His6 (S. cerevisiae); test: as above
[4] = target: T4, LexA BD-Pxa2_NBD-CT (S. cerevisiae); test: two-hybrid; EGY48 (pSH18-34) reporter strain, Pxa2 fragment fused to LexA BD (pEG202) and partner fused to Gal4 AD (pACT2); beta-galactosidase on an X-gal plate, 16 h at 30°C, blue indicates interaction
[5] = target: T5, LexA BD-Pxa2_NBD (S. cerevisiae); test: as above
[6] = target: T6, LexA BD-Pxa2_NBD-CT1 (S. cerevisiae); test: as above
[7] = target: T7, LexA BD-Pxa2_NBD-CT1+2 (S. cerevisiae); test: as above

| binding [1] | binding [2] | binding [3] | binding [4] | binding [5] | binding [6] | binding [7] | Binder |
| --- | --- | --- | --- | --- | --- | --- | --- |
| binds |  |  |  |  |  |  | Gal4 AD-Pxa2_NBD (domain or fragment, UniProt P34230 399-677) GNDMTADFITNRRLLVTASSSIGRFVELKRNIQQLRGIRLRLNKFNDLLDANKGDDEKEPRDERCIVEYDDSRIKFENIPLITPANQVLVPELSFDLKHGNHLLIIGPNGCGKSSLFRILGGLWPIRATPNKNHQSKLIMPRRTVDRDCAIFYLPQRPYMGNRSTFREQIIYPDSIEQFKERYHNDYDLGDADLIKILQLLDLEDLVTENMSLLLAQRTSKNDSQQLSTEDNQSPCAIKVRDAFSIVRNWSEELTIGVQQRLAMARMYYHKPKFAVLDE |
|  | binds | binds |  |  |  |  | Pxa1_NBD-HA (domain or fragment, UniProt P41909 500-774) SRLMHSIKDISQLTGYTNRIFTLLSVLHRVHSLNFNYGAVPSILSIRTEDASRNSNLLPTTDNSQDAIRGTIQRNFNGIRLENIDVIIPSVRASEGIKLINKLTFQIPLHIDPITSKSNSIQDLSKANDIKLPFLQGSGSSLLILGPNGCGKSSIQRIIAEIWPVYNKNGLLSIPSENNIFFIPQKPYFSRGGTLRDQIIYPMSSDEFFDRGFRDKELVQILVEVKLDYLLKRGVGLTYLDAIADWKDLLSGGEKQRVNFARIMFHKPLYVVLDE |
| no binding |  |  | binds | no binding | no binding | binds | Gal4 AD-Pxa1_NBD (domain or fragment, UniProt P41909 500-774) SRLMHSIKDISQLTGYTNRIFTLLSVLHRVHSLNFNYGAVPSILSIRTEDASRNSNLLPTTDNSQDAIRGTIQRNFNGIRLENIDVIIPSVRASEGIKLINKLTFQIPLHIDPITSKSNSIQDLSKANDIKLPFLQGSGSSLLILGPNGCGKSSIQRIIAEIWPVYNKNGLLSIPSENNIFFIPQKPYFSRGGTLRDQIIYPMSSDEFFDRGFRDKELVQILVEVKLDYLLKRGVGLTYLDAIADWKDLLSGGEKQRVNFARIMFHKPLYVVLDE |
|  |  |  | binds | no binding |  |  | Gal4 AD-Pxa1_NBD-CT (domain or fragment, UniProt P41909 500-870) SRLMHSIKDISQLTGYTNRIFTLLSVLHRVHSLNFNYGAVPSILSIRTEDASRNSNLLPTTDNSQDAIRGTIQRNFNGIRLENIDVIIPSVRASEGIKLINKLTFQIPLHIDPITSKSNSIQDLSKANDIKLPFLQGSGSSLLILGPNGCGKSSIQRIIAEIWPVYNKNGLLSIPSENNIFFIPQKPYFSRGGTLRDQIIYPMSSDEFFDRGFRDKELVQILVEVKLDYLLKRGVGLTYLDAIADWKDLLSGGEKQRVNFARIMFHKPLYVVLDEATNAISVDMEDYLFNLLKRYRFNFISISQRPTLIKYHEMLLEIGENRDGKWQLQAVGTDEAITSIDNEIEELERKLERVKGWEDERTKLREKLEII |

— article PMC4132065 (2014)
